Measured values taken from the supplement of paper PMC3334620.
In all, about 33,000 sequences were measured (“E-score (-0.5 to 0.5)”: median about -0.012, highest 2% from about 0.29 on). This is one part of the list.

Each sequence was assayed against T1, Ybr033w (UniProt P38073) (assay: PBM E-score (8-mer binding enrichment) (E-score (-0.5 to 0.5)); higher = stronger / more preferred TF binding; most listed sequences are background and not binding sites). Details: protein concentration: 200 nM; construct: GST-full length.
T1 sequence: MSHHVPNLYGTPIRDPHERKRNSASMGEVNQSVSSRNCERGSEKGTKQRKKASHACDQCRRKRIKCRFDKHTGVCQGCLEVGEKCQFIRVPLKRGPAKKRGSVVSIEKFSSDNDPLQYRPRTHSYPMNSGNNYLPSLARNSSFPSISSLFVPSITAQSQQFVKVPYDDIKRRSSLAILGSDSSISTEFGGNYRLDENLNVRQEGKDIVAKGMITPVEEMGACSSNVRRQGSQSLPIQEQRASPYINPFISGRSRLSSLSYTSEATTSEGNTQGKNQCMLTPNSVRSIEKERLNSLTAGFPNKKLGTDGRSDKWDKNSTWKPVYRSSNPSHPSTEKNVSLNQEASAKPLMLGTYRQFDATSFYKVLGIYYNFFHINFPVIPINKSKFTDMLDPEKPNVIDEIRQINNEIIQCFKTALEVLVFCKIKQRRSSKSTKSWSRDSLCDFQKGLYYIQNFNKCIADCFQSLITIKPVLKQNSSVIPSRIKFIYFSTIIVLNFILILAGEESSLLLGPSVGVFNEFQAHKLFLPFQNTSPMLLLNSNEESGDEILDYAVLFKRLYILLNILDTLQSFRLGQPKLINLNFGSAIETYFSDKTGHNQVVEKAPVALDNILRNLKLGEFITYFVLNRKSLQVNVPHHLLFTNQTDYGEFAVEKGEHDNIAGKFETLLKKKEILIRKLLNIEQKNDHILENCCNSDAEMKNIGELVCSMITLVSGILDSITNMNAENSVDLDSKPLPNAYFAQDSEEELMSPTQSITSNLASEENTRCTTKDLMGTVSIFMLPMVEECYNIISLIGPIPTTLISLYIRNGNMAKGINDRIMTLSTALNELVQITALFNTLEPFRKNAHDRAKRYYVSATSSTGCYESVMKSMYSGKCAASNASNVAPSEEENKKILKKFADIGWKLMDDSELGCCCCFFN
Method in brief: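 The E-score, a modified Wilcoxon-Mann-Whitney statistic, was computed by the Universal PBM Analysis Suite for every ungapped eight-base word pooled with its reverse complement. Scans behind it were normalised with masliner after bound GST-tagged yeast transcription factors were detected with fluorescent anti-GST. The proteins, at about 100-200 nM, had been applied to universal all-10-mer Agilent arrays made double-stranded by primer extension.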

Sequence	PBM E-score
CAATAACC	0.171
TAAGGGTA	-0.0451
GGCCGGTA	-0.154
ATGCCGGA	-0.149
GGGGTCAC	-0.315
CAAGCGGG	-0.129
AACTACTT	0.202
CAACGAAC	0.00792
AGAGGAGA	-0.155
AGAAATTA	0.352
CTGCCGGC	-0.252
GTGGAACA	0.226
CTACCTAC	0.0345
CACAGGTA	-0.00986
GTGTGGCA	-0.261
ATCTTCAG	0.185
ATTTCCGG	0.298
AAATTGGT	0.249
GCAGGCTA	-0.193
ACGTGGGC	-0.26
CTGCCGGA	0.0691
CACCTTGG	-0.135
ATTACGCC	-0.112
ACTGAGAC	-0.148
ATGGCTTC	-0.109

Sequence	PBM E-score
CTGCGAGC	-0.143
TCGGTTAA	0.197
CGGGTGGA	-0.212
AAATATCC	0.273
ACGCCGAC	-0.109
ATCTGTCA	0.0887
AACCGAAT	0.0877
GCAAGTAA	0.166
CTCGATTC	-0.105
CCGGCTCA	0.0849
ATGCCGAG	-0.0146
ATGCAATC	0.103
AAGGCGCG	-0.216
ATTCCAAT	0.217
AAACCCGC	0.066
CACACGAA	0.184
CTTCTTTA	0.00566
CGTATGAA	0.154
ATGGACTA	0.0935
ACAGACTA	-0.117
ACCAGAAG	0.067
ATACCTTC	-0.0665
TGGTTACA	-0.0198
ACCTTCAG	-0.00645
GTAAATTA	0.193

Sequence	PBM E-score
CAGGCCGC	-0.233
CGAATCCG	-0.0573
CAGATATA	0.175
CACGCTCC	-0.18
ATTCAACA	0.216
AGCCTTTC	-0.122
GAAGTCAA	0.14
AATCCTTA	0.269
CCTTTAAC	0.0817
CCCCCCCG	-0.5
ATTCGCGA	0.0308
ATAGTCAT	-0.0534
AAAAGCCT	-0.149
CCCGGGCC	-0.306
GTGTATAA	-0.0348
GCCCTCGC	-0.155
ATGTGGCG	-0.018
CACACTCA	0.15
CCGACGCC	-0.121
AATAGGGT	0.0693
CCGACTGA	-0.0552
ATACACTA	0.174
AGCCTCCC	-0.254
ACACAAAG	0.0312
CAAATCAA	0.236

Sequence	PBM E-score
CCGCACAC	-0.11
TCGAGCGA	0.0287
CAAGTATG	0.137
CCTGATTA	0.106
AGATCGGA	0.179
ACAGTACA	0.0358
AATTGTCC	0.163
AGACAGTG	-0.0814
AGGGAATG	-0.0266
CCTGTCGC	-0.21
AGAATTCT	0.233
ATGTCTGG	-0.0339
GAAATCTA	0.116
AGCACAGA	-0.0533
AGACTTTA	-0.0387
GAATAGCA	0.0431
GTAGTTTA	0.198
CCTTTTTC	0.182
ACCCCGTA	-0.0435
AAAAAAAC	0.24
GAAACGAC	0.00932
ACCTAACA	0.0697
CAAGGACG	-0.242
ACTTGAGG	-0.209
GCTGCACA	-0.269

Sequence	PBM E-score
CGCCGGCA	-0.186
ACGGGCCA	-0.311
CAAAGGCC	-0.0585
CCCCTGCG	-0.396
GACTGTGC	-0.201
CCGACCCA	-0.348
CTTGAGGC	-0.163
AACAGTAC	0.141
ACGCTGGC	-0.209
AAGTACGC	0.0662
ATTGTACA	0.104
TTATGCAA	0.164
ACTGAACG	-0.0959
GTGACAGA	0.01
ACATTAAC	0.167
AGCGTCCT	-0.174
CTCCTTAC	0.146
ACGAGGAT	-0.0513
AGTTCCGC	0.21
GTTTTTCA	0.0689
ATGGGATA	0.0325
ATCGCATA	0.198
GAAAACCA	-0.0423
ATCCAAAT	0.0469
TGACTCAA	-0.0145

Sequence	PBM E-score
ATTCCCAA	0.267
CCCTCTTC	-0.359
GCGGGCCC	-0.324
AGATTCCG	0.153
GGTCCTTA	-0.0676
ACTGCTCA	0.122
AGAGAGCT	-0.245
CCAGGCCG	-0.137
CGCACATA	-0.204
CAAAAGGA	0.168
AGTTGGGG	-0.126
ATTCAAGA	0.191
GACGAACA	0.0851
CGCTAGTC	-0.318
GGCAGAAA	0.247
GTCCTCAC	-0.13
AACGGCTA	0.0615
AAGCAATA	0.13
ATAGGCCC	-0.207
AAGTACAC	0.116
CTCGTCTA	-0.0771
ATCCAGCA	0.029
GCGTATAC	0.0475
GGTCAGCA	0.0405
CCGCATAC	0.0488

Sequence	PBM E-score
ATGGAGTA	0.0791
AGGAGAAC	-0.128
CGTTGTAC	0.101
GTGAGGGA	-0.267
TAAGCACA	0.145
AATTCTGA	0.232
GTCCTCAA	0.0693
CGGGTCCC	-0.343
ATCCCATG	-0.106
ATGTGCTC	-0.0237
GACGCGGA	-0.113
CAACGTCG	-0.0717
CTCAAGGC	-0.0255
ATACACTC	0.0996
ACAGCCGG	0.0375
ACCAAGCA	-0.0203
CATATTAA	0.347
CCATTTTC	0.161
ACCGCCTA	-0.146
ACAGCACC	-0.205
AGTTATGC	0.0871
GGTTTGGA	-0.0328
AGTTATAA	0.151
ATGTCGTG	-0.161
CGTACAAG	0.026

Sequence	PBM E-score
CGCATGTA	-0.12
CTAATTCA	0.135
ACTGTTAC	0.0169
AAGCTCGA	0.138
ATGTCTGA	0.0588
CAGTGAAA	0.126
AACGAACA	0.196
GGCGCCGA	-0.104
AGCCTGCC	-0.168
TCCAAAAA	0.115
CAACGTCA	0.108
GAGACCGA	-0.0812
GTAATGGA	0.163
GACCATGC	-0.154
AAGACTTC	-0.187
CCGTCAGG	0.0345
ACTCCTGG	-0.192
CCGATACG	-0.254
CCCCTAAG	-0.157
GAATTGGA	0.03
CGTTGCCC	-0.31
CATGAACC	-0.0371
CACGTAGC	-0.273
TTAATAAA	0.381
TGACTCCA	-0.123

Sequence	PBM E-score
AACCGCGT	0.0693
CTAGGAGA	-0.0781
CACGTTCG	-0.0424
ATACAAAC	0.306
ATAGGCCG	-0.266
CACAGGTC	-0.199
GTACTTAA	0.118
CGCGTGGA	-0.226
GTTAGGGA	-0.172
CGTGGCAG	-0.0958
ATGACGAC	0.00677
GTCAACCA	0.0737
ATCATCCC	0.166
CGTTTATC	0.172
AACCAACA	0.165
CGTCATTA	0.047
ACTAAACA	0.177
ATAGTGGG	-0.0343
ACCACGCG	-0.164
AGTGGTGC	-0.0473
ACCCCCTG	-0.454
AGGTGAGC	-0.172
GCCTGACC	-0.211
AGTGACCG	-0.192
ACGTCTAG	0.0964

Sequence	PBM E-score
CCTGGCTC	-0.174
GCCTAGGC	-0.287
ACTCACGG	-0.0114
CCGACGAA	0.119
CAGTAAGA	0.0564
ACCGTGGA	-0.224
ATGTTAAC	0.169
AAGCCATG	-0.247
ATCTACTA	0.324
AGTCTCAG	-0.149
ACTGTTTA	0.187
GACACCGA	-0.182
AGCAGCTA	0.163
AACCCACC	0.021
CACTCAGG	-0.108
AACATAAG	0.255
GATACTTA	0.135
CCAATCGA	-0.1
TGGCAGAA	0.0785
CCCTGTTC	-0.158
CGAATCTA	0.0941
GATCCCCA	-0.167
CAACTGGG	-0.228
GAGCACAC	-0.217
ATCTCGCG	0.225

Sequence	PBM E-score
CTTCCAAG	0.0645
GTTGCATA	0.0648
CAGTTAAC	-0.0541
AGGCATGG	-0.0824
ACCCATAA	-0.0263
GCTGCCCC	-0.367
AGATCGAG	0.0958
GCCCCCTA	-0.309
AGCATGCC	-0.318
GGAAGTCA	0.0558
AGTGCCTG	0.0844
CACGCTAA	0.0904
CGCCCGCA	-0.0804
AATGCTTA	0.0895
AAACGAGA	0.0255
GGGGTCAA	-0.0578
ACTTTCTC	0.0654
GCCCGGTA	-0.21
GGTTTCAA	0.0869
GTCGATCA	0.103
AATCTTGA	0.0862
ATTCGTTA	0.166
CGTAAATA	0.154
ATTGAGCG	0.0411
CGGACTGC	-0.101

Sequence	PBM E-score
AATGCATG	0.0293
ACACCGTC	-0.0477
AGCGCCCG	-0.167
CTTGGGAA	0.142
CACGGCCC	-0.238
CTAGTAGA	0.101
AATAGAAC	0.243
GCGTTGAA	-0.0177
CCGCGCCA	-0.118
CAGTTGAC	0.0609
GATGTCCC	-0.0788
ATTTTCGA	0.121
GTGGTCTA	-0.0327
GCCTTAGC	-0.0859
CCTAACCC	-0.338
GTCAGGAC	-0.203
AACTAGAA	0.0732
ACGATGCT	-0.133
CCCATTCC	-0.3
ATATGGAC	0.104
CTTCAACC	0.00158
GCAGGCCC	-0.319
AAGATTAG	0.219
AAACTCCC	-0.0496
CCTAAAGC	-0.0686

Sequence	PBM E-score
AATCGCTA	-0.0432
GCCCTGAA	0.0531
TGAACTCA	-0.0954
GGGAGTAC	-0.221
ATCCATAC	0.17
ACCCAACG	-0.034
GGGTAGAA	-0.0125
ATGAAATA	0.112
CTTTGTGC	-0.00737
TCCACTCA	0.116
ATCGAGTA	0.0423
AGTTATGA	0.0811
CCGCATTA	0.0751
ATACCCTC	0.107
AAAATAAA	0.319
GTTGAGGA	-0.0398
GTGTGCGA	-0.0715
CGGTCGAC	-0.162
CGGTTGTA	-0.189
TGATGCCA	0.0319
ATTCAAAA	0.266
CGGCGAAC	-0.147
AGAGTGAT	0.0159
GTTAATTA	0.266
CTTTAACA	0.222

Sequence	PBM E-score
ATGTCAGC	-0.0298
ACGGTTCT	-0.118
AGCCGGGA	0.00118
CTACTTTC	0.0597
ATGTTCTC	0.0345
AACGGACG	-0.0518
CGCGGCGA	-0.0533
TCTGAACA	0.0293
CTATTAGA	-0.101
ATGGTCTA	0.00273
CCAATAGG	-0.069
GAAACGTC	-0.0259
CTCGCATA	0.0348
ACTAGTCA	0.0224
AAGGGTTG	-0.0377
AAGTTACC	0.135
CTACGAAC	0.0127
CCGGCCCA	-0.263
CCCGATAC	-0.151
